The results in this text go back to PMC12136788.

B1: chr13:27440139:27440263:-|CDS|ENSG00000122033|unk|FALSE|unique (ssRNA)
RNA: GGGAGUUCUACAGUCCGACGAUCAAUGAAGGAAAAAAGACAAAAAAGAAUAAAACAGCUUUUAGUAACGUUGGAAGAAAAAUUAGUCAGCGAGUUAUUCACUUAUUUGAUGAGAAGGGCAAUGAUUUGGGAAACAUGCACCGACAACAGAGGAUUGAGCAUCA
B2: chr11:111726697:111726798:+|3pUTR|ENSG00000170145|unk|FALSE|unique (ssRNA)
RNA: GGGAGUUCUACAGUCCGACGAUCGGAAGCUUCCAAGCAGUUUUCUCUUCAUCACUACUAACAAACAAAACACUAAGAAGGCUUAGUAUCGCUCUUUUUCUGCGGGGCUACUCUGAAGUACUGACUUGCUUUCCAGUCUGAUUCCAACAGAGGAUUGAGCAUCA
B3: chr10:131092390:131093161:-|three_prime_utr|ENSG00000176769|control|control|control (ssRNA)
RNA: GGGAGUUCUACAGUCCGACGAUCGUGAAUUACUUCGUUUCUCCAGGAUUCCCGCAGUGUUGAGGAAUUCCUUACUCUGUCCCUAGGUCUCAGUCUCGUUUCUGAGUAGCAGCAAUAGGGUUUUCAUCAUUCAUCAUAGUGACACAACAGAGGAUUGAGCAUCA
B4: ENSG00000198589:be:win_551|CDS|ENSG00000198589|bound_else_gene|NA|bound_elsewhere_windowed (ssRNA)
RNA: GGGAGUUCUACAGUCCGACGAUCCUCCACAUGCUGGGAAGUUGCUGUCUGUGUUAAAGCAUAUGCCUCAGAAGUAUGGUCCUGAUGCCUUUUUUAACUUUCCAGGAAAGAGUGCUGCAGCUAUUGCAUUACCUCCUAUAGCCACAACAGAGGAUUGAGCAUCA
B5: chr1:93888438:93888539:-|3pUTR|ENSG00000023909|msi1|total|mutant (ssRNA)
RNA: GGGAGUUCUACAGUCCGACGAUCAGAUAUUUUUCCUGUCAUUGAUGAGAUAUAUCAGAGUAACUGGAGCCGCUGGGAUUUACCCGCCGUGUAAAUAAAAUUCACUCUUCAAUACAUGAAUGGAAACUUAAAUUUUUUUUUAUGCAACAGAGGAUUGAGCAUCA
B6: chr8:41262982:41263083:-|3pUTR|ENSG00000104332|msi1|FALSE|unique (ssRNA)
RNA: GGGAGUUCUACAGUCCGACGAUCCAACCGGGCCCUCUCUCUGCGGCAGAGUCCUUAGUGGAGGGGUUUACCUGGAACAUUAGUAGUUACCACAGAAUACGGAAGAGCAGGUGACUGUGCUGUGCAGCUCUCUAAAUGGGAAUUCAACAGAGGAUUGAGCAUCA
B7: chr4:113382420:113382521:+|3pUTR|ENSG00000145362|msi1|FALSE|bound_elsewhere (ssRNA)
RNA: GGGAGUUCUACAGUCCGACGAUCUCUUCAGGUCUUUAGAUCUUGGACAAGUUGGCAGGGUAUUUUAAAAGCUAUAACUACUGUAGUUUUCCAGUUUUCAUUGCUGCUUUAGCAAACCACGCUGUCUUACAGUGGUACUUUCUUCAACAGAGGAUUGAGCAUCA
B8: chr10:87814449:87814585:-|CDS|ENSG00000138138|unk|total|mutant (ssRNA)
RNA: GGGAGUUCUACAGUCCGACGAUCUUUAAUUUUCCGUUUGACAAUAUUUGGUGCAGUGACAUACUUUACUAUCAAAUGGAUGGCCGAUGCAAUUGAUCCAACCAGAAAGCAAAAAGCCGAAGCUCAGAAACAGGUAUGAUUGAACAACAGAGGAUUGAGCAUCA
B9: chr8:22006149:22006250:+|3pUTR|ENSG00000130227|msi1|FALSE|unique (ssRNA)
RNA: GGGAGUUCUACAGUCCGACGAUCGAAUGUAUGAACUGGAGGAAGUUACUACAGUGGAAGGGUUCUUAAUAACAAGGUCUACCUAGCAUGAAGUAUUUAACAUUCUCCCAUCCCUUAAAAAAUAUACAUUUUUAUAAAAUGAAACAACAGAGGAUUGAGCAUCA
B10: chr3:196828865:196828966:+|3pUTR|ENSG00000180370|msi1|total|mutant (ssRNA)
RNA: GGGAGUUCUACAGUCCGACGAUCUGCUCCUUUUGAGUUGCUUUUGCGUUUCUCAUGCCCCGGCAAGUGUAACCGAAAUUAUGCCGCUCCUUAUGUUGGCAAAGGAGCUCUAUACCGUUUCACUUUGUAUAAAAGUCCGGACCACAACAGAGGAUUGAGCAUCA
B11: ENSG00000198589:be:win_201|CDS|ENSG00000198589|bound_else_gene|NA|bound_elsewhere_windowed (ssRNA)
RNA: GGGAGUUCUACAGUCCGACGAUCAACUGUCUUUAACCUGUUGGUAGGAGGACAGUUUGAUCUGGAAAUGAAUUUCAUUAUCCAAGAAGGUGAGAGUAUUAACUGCAUGGUGGACCUACUGGAAAAAUGUGACAUUACGUGCCACAACAGAGGAUUGAGCAUCA
B12: chr8:122953881:122953982:+|CDS|ENSG00000178764|msi1|total|mutant (ssRNA)
RNA: GGGAGUUCUACAGUCCGACGAUCGAGUCGAGCGUUGUGGAUUACGUGGAGGUGACGGUCGGGGAGGAGGAUGCGAUCUCAGACCGAUCAGACCGCUGGAGUCAGGCUGCGGCAGAAGGUGUGUCGGAACUGGCUGAAUCAGACCAACAGAGGAUUGAGCAUCA
B13: chr15:65118290:65118391:-|3pUTR|ENSG00000090470|msi1|FALSE|unique (ssRNA)
RNA: GGGAGUUCUACAGUCCGACGAUCACUUCCUUGUGUGUUGAUGGGUAAGUACACUCAAACACUGAAUACAGGUGUGUGAUGGGUAGAUUUCACAGCCCUUCUACUAAUAGUGAGUGUGAAGGCAAGCUUGAUGCAAAACCUCCUCAACAGAGGAUUGAGCAUCA
B14: chr8:118923556:118924373:-|three_prime_utr|ENSG00000164761|control|control|control (ssRNA)
RNA: GGGAGUUCUACAGUCCGACGAUCACUAUAUUUUCCCUUAUUACUGCUUGCAGUAAUUCAACUGGAAAUUAAAAAAAAAAAACUAGACUCCAUUGUGCCUUACUAAAUAUGGGAAUGUCUAACUUAAAUAGCUUUGAGAUUUCACAACAGAGGAUUGAGCAUCA
B15: chr22:21763623:21763656:-|3pUTR|ENSG00000100030|msi1_unk|total|mutant (ssRNA)
RNA: GGGAGUUCUACAGUCCGACGAUCGUGCUUCCGUCUCCGGAAUCCUUGGGGAGCACUUGUCCACGUCUUUUCUCAUAUCAUGGCCGUCACUAACAUAUAUAAGGUAUGUGCUAUUGGCCCAGCUUUCCGAAAAUGCAGUCAUUUCAACAGAGGAUUGAGCAUCA
B16: chr9:130903550:130903651:-|3pUTR|ENSG00000130720|msi1|FALSE|unique (ssRNA)
RNA: GGGAGUUCUACAGUCCGACGAUCAAAUACCCGGCAUUAUGGGGACAGAGAGCAGGGGGCAGACAGCACCCCUGGAGUCCUCCUAGCAGAUCGUGGGGAACGUCAGGUCUCUCUGAGGUCAGGUCUGAGGCCAGUAUCCUCCAGCAACAGAGGAUUGAGCAUCA
B17: chr2:213007362:213008084:-|CDS|ENSG00000030419|control|control|control (ssRNA)
RNA: GGGAGUUCUACAGUCCGACGAUCCAAUGGAGAAGGAGAACAGAUUAGGGCCUUCAAGUGUGAGCACUGCCGAGUCCUUUUCCUAGACCAUGUCAUGUACACCAUUCACAUGGGUUGCCAUGGCUACCGGGACCCACUGGAAUGCAACAGAGGAUUGAGCAUCA
B18: ENSG00000198589:be:win_9201|3pUTR|ENSG00000198589|bound_else_gene|NA|bound_elsewhere_windowed (ssRNA)
RNA: GGGAGUUCUACAGUCCGACGAUCACCAUUUUUUCCUGAUCUGUCAUCUUCAUAGCACAACAAAACGAAAUGAUGGAAAUGCUCUUGAGCUCACAACAUUUGUUUUUCUUUUAAAGUAAAUGCAAGUACCAAAGCUCACUACUGCAACAGAGGAUUGAGCAUCA
B19: chr2:216672374:216672548:-|3pUTR|ENSG00000115461|msi1|total|mutant (ssRNA)
RNA: GGGAGUUCUACAGUCCGACGAUCUUUUUCUUUUUUUUUUUGAAGACAGCAAUAACCACAGUACAUAUUACUGCCGUUCUCUACCGUUUUACAUACAUUCAUACCAUAACUCUGUUCUCUCCUCUUUUUUGUUUUCAACUUUAACAACAGAGGAUUGAGCAUCA
B20: ENSG00000198589:be:win_4801|CDS|ENSG00000198589|bound_else_gene|NA|bound_elsewhere_windowed (ssRNA)
RNA: GGGAGUUCUACAGUCCGACGAUCCGAAGGAGGGACUCAGGCAUUGGGGAAGAAACAGCCACUGGUUUAGGAAGCCAUGUGGAAGUAACUCCUCACACAGCACCUCCUGGUGUCAGUGCAGGCCCAGAUGCAAUCAGCGAGGUGCAACAGAGGAUUGAGCAUCA
B21: chr1:235113809:235113910:-|CDS|ENSG00000173726|msi1_unk|total|mutant (ssRNA)
RNA: GGGAGUUCUACAGUCCGACGAUCAGGCUUUUCAGGUUACAUGUAAUUUUAUGUAAAUCUUACAGGUGAAUAUGAGAAGGGCGCCGACCAUCUGACAAAUGCAAUUGCUGUGUGUGGACAGCCACAGCAGUUACUGCAGGUCUUCAACAGAGGAUUGAGCAUCA
B22: chr17:73284618:73284719:-|3pUTR|ENSG00000179604|msi1|total|mutant (ssRNA)
RNA: GGGAGUUCUACAGUCCGACGAUCGGGCACUCGCUCAGUCCCCCGGGGCUUGUUUGUUCUUUAUUAUUGUGUUUAAAUCCUUACCGAGCAAUAUCAGGAUGGUGUUAACCGGUCUGCCUCAGAAUGAGAAUCAAUCCUUUCCGACAACAGAGGAUUGAGCAUCA

Some of the results follow.

This assay addresses MSI1 full-length (mouse, UniProt Q61474 1-362). Description: nsRBNS (natural sequence RNA bind-n-seq); RBNS binding buffer (assumed for nsRBNS): 25 mM Tris pH 7.5, 150 mM KCl, 3 mM MgCl2, 0.01% Triton X-100, 500 ug/ml BSA, 20 U/ml SUPERase-In, 4 C; UNK is unkempt and MSI1 is Musashi-1; names of the RNAs are library labels; protein concentration not given here; high values mean tight binding.
UniProt Q61474, sequence (Q61474 whole entry): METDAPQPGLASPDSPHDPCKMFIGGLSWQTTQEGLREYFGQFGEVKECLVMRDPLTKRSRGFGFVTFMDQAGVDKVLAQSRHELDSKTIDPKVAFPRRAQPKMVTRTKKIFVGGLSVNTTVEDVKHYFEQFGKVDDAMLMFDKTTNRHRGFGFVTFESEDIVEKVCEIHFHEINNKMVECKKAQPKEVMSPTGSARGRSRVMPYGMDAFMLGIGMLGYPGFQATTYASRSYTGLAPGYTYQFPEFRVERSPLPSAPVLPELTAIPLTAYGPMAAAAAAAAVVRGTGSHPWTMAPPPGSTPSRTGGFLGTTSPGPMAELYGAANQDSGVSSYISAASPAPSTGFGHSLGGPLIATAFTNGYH
As for B1, the binding signal turned out to be 2.36 enrichment R.
B2 had a binding signal of 0.426 enrichment R.
B3 yielded a binding signal of 0.406 enrichment R.
Molecule B4 displayed a binding signal of 0.435 enrichment R.
For B5, the binding signal came to 0.484 enrichment R.
In turn, B6 had a binding signal of 1.1 enrichment R.
For B7, the binding signal came to 0.387 enrichment R.
Next, B8: 0.255 enrichment R.
The molecule B9 gave a binding signal of 0.689 enrichment R.
For B10 the value was 0.459 enrichment R; for B11, 0.245 enrichment R; for B12, 0.588 enrichment R.
In turn, B13 came in with a binding signal of 0.361 enrichment R.
For B14 the value was 0.729 enrichment R.
The molecule B15 displayed a binding signal of 0.528 enrichment R.
B16: the binding signal worked out at 0.492 enrichment R.
As to B17, the binding signal worked out at 0.609 enrichment R.
Molecule B18 returned a binding signal of 0.392 enrichment R.
B19 displayed a binding signal of 7.36 enrichment R.
On to B20, for which the binding signal came to 0.412 enrichment R.
For B21 the value was 0.246 enrichment R; for B22, 0.567 enrichment R.
